From the supplement of paper PMC8285479
Counter-ions that a name gives are not always drawn. ± gives the standard deviation of the averaged measurements. Over roughly 1,900 compounds, “normalised cell viability (NPI; 0 = phenylarsine oxide control, 1 = DMSO control)” has its median near 1; the lowest 2% begin near 0.039. This is one part of the list.

Test system: NCI-H1944
Test: normalised cell viability (NPI; 0 = phenylarsine oxide control, 1 = DMSO control) (fraction of DMSO control); NCI-H1944 is a non-small cell lung cancer line; higher = more viable cells (less compound toxicity)
Conditions: 6 days
[1] = glucocorticoid arm: hydrocortisone 2.75 uM co-treatment, compound 1 µM
[2] = glucocorticoid arm: hydrocortisone 2.75 uM co-treatment, compound 5 µM
[3] = glucocorticoid arm: hydrocortisone 2.75 uM pre-treated 2 days and continued, compound 1 µM
[4] = glucocorticoid arm: hydrocortisone 2.75 uM pre-treated 2 days and continued, compound 5 µM
[5] = glucocorticoid arm: vehicle, compound 1 µM
[6] = glucocorticoid arm: vehicle, compound 5 µM
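Also: CTB read-out in 384-well plates, mean of triplicate wells, normalised per plate against 1 µM phenylarsine oxide and 0.1% DMSO, compounds added 24 h after seeding.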

Compound | normalised cell viability [1] | normalised cell viability [2] | normalised cell viability [3] | normalised cell viability [4] | normalised cell viability [5] | normalised cell viability [6]
CC(=O)OC(C)C[N+](C)(C)C (stereo not drawn) [Acetyl-beta-methylcholine chloride] | 0.9817 ± 0.0061 | 0.981 ± 0.01 | 0.9823 ± 0.0059 | 0.978 ± 0.029 | 0.97 ± 0.014 | 0.97 ± 0.005
CCCCC[C@H](CC(=O)NO)C(=O)N[C@H](C(=O)N1CCC[C@H]1CO)C(C)C [Actinonin] | 0.989 ± 0.0095 | 0.995 ± 0.014 | 0.993 ± 0.016 | 0.993 ± 0.0099 | 0.989 ± 0.005 | 0.98 ± 0.0098
Cc1nc(N=Nc2ccc(S(=O)(=O)O)cc2S(=O)(=O)O)c(COP(=O)(O)O)c(C=O)c1O | 0.989 ± 0.013 | 0.995 ± 0.022 | 1.02 ± 0.057 | 0.9833 ± 0.0087 | 0.993 ± 0.0062 | 0.9903 ± 0.0046
Cc1ccc(O)c([C@H](CCN(C(C)C)C(C)C)c2ccccc2)c1 [Tolterodine tartrate] | 0.989 ± 0.009 | 0.956 ± 0.025 | 0.974 ± 0.026 | 0.955 ± 0.014 | 1 ± 0.0087 | 0.997 ± 0.012
CCN1CCCC1CNC(=O)c1cc(S(N)(=O)=O)ccc1OC (racemic) [(±)-Sulpiride] | 0.998 ± 0.012 | 0.983 ± 0.015 | 1 ± 0.013 | 0.979 ± 0.015 | 0.9903 ± 0.0091 | 1.001 ± 0.0081
O=c1cc(CN2CCOCC2)occ1OCCCCCSc1ccnc2cc(C(F)(F)F)ccc12 | 0.965 ± 0.014 | 0.915 ± 0.015 | 0.935 ± 0.029 | 0.907 ± 0.043 | 0.991 ± 0.011 | 0.947 ± 0.013
COC1=C(OC)C(=O)c2ccccc2C1=O [2,3-Dimethoxy-1,4-naphthoquinone] | 0.994 ± 0.01 | 0.905 ± 0.047 | 0.994 ± 0.0066 | 0.956 ± 0.01 | 0.997 ± 0.0027 | 0.8913 ± 0.0032
CCOc1ccc(Cc2cc([C@@H]3O[C@H](CO)[C@@H](O)[C@H](O)[C@H]3O)ccc2Cl)cc1 [Dapagliflozin] | 1.01 ± 0.016 | 1.02 ± 0.026 | 1.02 ± 0.015 | 1.04 ± 0.017 | 1.001 ± 0.0081 | 1 ± 0.011
CN(C)CCC(c1ccccc1)c1ccccn1 (centres undefined) [Pheniramine maleate] | 0.975 ± 0.002 | 0.99 ± 0.018 | 1 ± 0.026 | 0.984 ± 0.014 | 0.964 ± 0.002 | 0.959 ± 0.012
Cn1cc(/C=C/C(=O)c2cccc(F)c2)cc1/C=C/C(=O)NO | 0.983 ± 0.026 | 1.01 ± 0.011 | 0.99 ± 0.01 | 1.01 ± 0.013 | 0.9943 ± 0.009 | 0.984 ± 0.014
Nc1nccc2c1ncn2C1C=C(CO)C(O)C1O (centres undefined) [3-Deazaneplanocin A (DZNeP)] | 0.889 ± 0.023 | 0.894 ± 0.016 | 0.884 ± 0.029 | 0.898 ± 0.018 | 0.95 ± 0.0046 | 0.703 ± 0.013
COc1nc(C)cnc1NS(=O)(=O)c1cccnc1-c1ccc(-c2nnco2)cc1 [Zibotentan (ZD4054)] | 1.01 ± 0.013 | 1 ± 0.021 | 1.007 ± 0.0058 | 1.03 ± 0.036 | 1.007 ± 0.0058 | 1.007 ± 0.0058
Cn1cc(C2=C(c3cn(CCCSC(=N)N)c4ccccc34)C(=O)NC2=O)c2ccccc21 [Ro 31-8220 Mesylate] | 0.998 ± 0.013 | 0.125 ± 0.013 | 0.973 ± 0.036 | 0.297 ± 0.087 | 1.013 ± 0.0058 | 0.0242 ± 0.0022
Nc1ccccc1NC(=O)CCCCCCC(=O)Nc1ccccc1 | 1 ± 0.016 | 1.03 ± 0.017 | 1 ± 0.014 | 1.025 ± 0.0084 | 1.002 ± 0.0061 | 1.008 ± 0.0088
